# Test results: the RNAGym collection of RNA variant scans (doi:10.7554/elife.90254)
# The source gives no read counts; variants with many changes may rest on few reads.
# B1: LINE1-full (parent)
# chain: UACGUAGGUGGUUUUCCCCUGAUAGUGCUAAGGGGGCCUGGAAGUUUGGACUGGGCAGAGCUCAACACAGCGUGGCAAAGUGGCUGUGGCUAGACUGCCUCUCUGGAUUCCUCGUCACUCAGCAGGGCAUCUCUGAGAGAAAUGCC
# Variants of: B1
# Test: self-cleavage, relative activity (ratio to wild type); higher = more cleavage; in vitro, sequencing; the parent is a self-cleaving ribozyme
row,Variant,self-cleavage
1,A78G G88A A136G,0.07
2,C3U A69U U73A U87A,0
3,U5C U9A U100C A141G A142G,0.55
4,U20C U26C A77U,1.74
5,U13C U62C U102C A129U,0
6,A78G G80U A136G A141G,2.72
7,G41U U85A U108C,0.08
8,U13A U45A G48A U91A,0.25
9,U47C A69U U109A U115A,0.03
10,U14C U39C A78G A142G,1.17
11,U62A A64C U73C C113U,0.07
12,C17U U143A G144A,1.61
13,A43G U47C U102A,1.78
14,U12G U47C A50G A59U A64G C113U A117G C118U,0.44
15,U14C A79U U91C U109C,1.25
16,A2G C116U U130C,0.96
17,G10U U13C U47C A138U A141C A142G,1.67
18,U5C A67G U73C C116U U132C A141U,0.21
19,A64G U96A A121G,0.04
20,U39C U62C A92G A140G G144A,0
21,U12C U15C G93A A121G,0.2
22,U14C C95U A117G,0.13
23,U115A A124U U143A,1.6
24,U15C A64U A124G A129G A140U,0.36

row,Variant,self-cleavage
1,U45A U87C U104A,0
2,A2G U12C U45C,0.5
3,U5A U108A A129G,0.77
4,A2G U85C U132C,0
5,A30G U52A A64U U73A U109C,0.74
6,U20C A31G G48A U73C,0.75
7,U13C G83C C99U,0.16
8,A57G A107G C113U,0.26
9,A42G A121U A140C A142G,1.58
10,U96C U100C U109A U134C,0.23
11,U1C A64U A65G A77U,0.09
12,C19A A77G U96C,0.17
13,U20C U73C A107G,1.02
14,U9A U15C A64G G72A U81C G114A,0.27
15,U96A U119C U130C,0.21
16,U15C C90U U108C,0.07
17,U15C G27A U46C A121U,0.9
18,A2G U96C A124C,0
19,G72A U73C A77U A92G A117C,0.09
20,U46A A94G U102A,0.25
21,U39C C68G U91C,0.19
22,U14C U46C U62C C110U,0.11
23,G48A U115C A140G U143A,1.63
24,U96C U102C C146G,0.1

row,Variant,self-cleavage
1,C19U U20A A92G,0.12
2,U12C U14C U81C,0.57
3,A69G A79G A136U,1.75
4,G4A A22C C110A A140G,1.47
5,G27A U47C C68U U87C A92G,0.05
6,A42G A64G U87C U119A A129U,0
7,A42G U81A U85C,0.48
8,U9C U39A A92U A142C,1.13
9,A94G U96C G114C,0.08
10,U20A U96G U115C,0.25
11,A6G A78G A94U C128U U130C,0.41
12,G25A G58U G125A A138G,0.04
13,U14C U20C A136G U143C,0.77
14,A78G A79G U109C,2.3
15,C38U U108C A117U A141G,1.54
16,A22G U81C G97A A117G A136G,0.37
17,A77U A94G U102C,0.15
18,U20C G32U A78G,2.12
19,U20C U104A G144A,2.16
20,U5C A50G U81A U112C A142U U143C,1.9
21,U87C G114A U143A,0.18
22,C17U G49A A78G A79G U115C,1.31
23,A50G U73A A117U A124U,0.41
24,U13C A42U A57G U104C,0.2

row,Variant,self-cleavage
1,U13C G36U U100C U102C C103U,1.54
2,U23C A24G U87C,1.1
3,U12G A67G C76U A121G A136U,1.4
4,G27A A50G C51U C61G A79G A94G U108A A124C A138G,0
5,A57G A65G G93A G127A A140C,0.03
6,C18G A50G U112C A129G A138G,0
7,U13C U52A A124U,1.4
8,A67U C71U U96A,0.02
9,U14C U29C A78G U87C C120A,0
10,U5C U9G A22G C37G A65G G105A,0.6
11,U13C U14C U47C U87A,0.53
12,A50G A69G C99U U109A,0.13
13,U9G U96C A140U,0.55
14,C19U C71U U91C U115C A117G,0.19
15,U12A U73C U81G,2.12
16,C16U A124U A136G,1.42
17,U5C U62C U91C G93A A140G,0
18,U23C A24G U85A U130A A138G,0.5
19,A57G U108C A142G,1.15
20,U39C A94G A117G,0.46
21,G82A C84U A107G U134C A142G,0.56
22,U15C U26A G83A U134C,0.98
23,U15C U109A A129U,2.69
24,U45G U81G G86A,0.06

row,Variant,self-cleavage
1,C19U A22G U46A,1.07
2,C51U U102C U132C,1.48
3,U100C U115A U130C,1.53
4,C37U A42G U85A G89A,0.05
5,U13C G40U U109C,1.41
6,A2G U46C U73A,0.75
7,U96C U104C G126A,0.1
8,U23C A31G A42U A142C,1.19
9,A57G A94G U115C,0.48
10,A22G C28U G48C A57G G72A U85A U130C,0
11,U52A G60A U91C A92G U134C,0.02
12,A6U G34U U73A,0.3
13,A6G C56G A67U A136G,0.15
14,U52A U96C U102C C111U,0.06
15,U46C U104G C123U,0.79
16,U23A U52A A67G,0.86
17,U81C U119C C123U,1.97
18,U15C U45C A50G,2.16
19,U14A G48A U119A,0.67
20,A92G A107G A121U,0.22
21,U14C A31U A140G,1.28
22,U47G G48U A67G G80U U81C U115C,1.84
23,C17U U109C U134C A142G,0.98
24,A65G U134C A136G,0.07

row,Variant,self-cleavage
1,A6G U9C A57G A129C,0.57
2,A6G A43G U62C,0
3,U29C G55A A57G A65U A138G,0.08
4,A31C U39C C113A U132C A140G,1.39
5,C18U A57G A78G A79G,0
6,A64G U119A A141G U143C,0.49
7,A2G G8A U87C U115A A140U,0
8,A65C A136U A141G,0.02
9,U20A A78G U132C,1.32
10,A30G U45C U119C A140G,0
11,U13C U15C C71U,0.88
12,U47C U62C A92G C116A,0.06
13,U13C C38U G82A U108C U109C A138G,1.72
14,U13C U14C G35A U108C U130C,0.42
15,U47G U62A A107G,0.36
16,U15A U109C C146U,0.86
17,U26C G53C A141G,1.35
18,U14C A77U U81C A138U,0.43
19,A59U A65G U81C A138G,0
20,U13A U85A U130C,0.07
21,G4A U62G A136U,0.18
22,A42G A64G G74A U81C U104C A129U,0.15
23,G114U A136G A142G,1.49
24,A24G U46C U115C,2.24

row,Variant,self-cleavage
1,G10A U29C U62C A77G,0.35
2,U9A G55C U91A,0.2
3,A30U U45C A59U A67G,0
4,U9A U20C U47A U112A A124G A141G,1.17
5,A43G C56A A67G A69U,0.09
6,U87C U109C U112A,0.45
7,A79G U96C A138G A141G,0.61
8,A30G A43U U46C C99A,1.44
9,A59G U62C A107G,0
10,A24G C63A A67G U109A,0.08
11,U29C A50G U104C C113A,1.69
12,U39A A42G A64G U132A A140G,0.4
13,A31G A69U U96A,0.02
14,U13G U115C A124G,0.54
15,U62A U134C A140G,0
16,U12C U52C G72A C103U,1.74
17,A6G U87C A124U,0
18,A50G C51A A77G U102A,2.73
19,U5A U12C A79C U81C G82A,0.48
20,U12G U47C A79G,0
21,U15A U23A A30U U52A G127A,1.25
22,U45C U96A U100C A124G A141G,0
23,U20C U73C A94U U104C U132C,0.54
